The assay has as its system Plasmodium falciparum NF54 stage V gametocytes. Put plainly: viability index relative to DMSO control (fraction); higher = less gametocyte killing. The following applies: 2.5 µM, incubation time: 72 h. In a few lines:
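P. falciparum NF54 stage V gametocytes in serum-free screening medium (0.75% gametocytemia, 1.25% hematocrit, 10 µl) were incubated with compound at 2.5 µM in 1,536-well plates for 72 hr at 37°C under low oxygen. Then 3 µl of 2.5 µM MitoTracker Red CMXRos plus 0.13% saponin was added for one to two hours. One field per well was imaged, 20–70 µm2 red particles were counted, and the viability index was the count divided by the plate mean of DMSO wells.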

Where [1] appears, read: library set: Broad Institute DOS.

± gives the uncertainty stated by the source. The full ranking holds about 9,900 compounds; the median of “viability index relative to DMSO control” is about 1, and the lowest 2% start at about 0.85. The list shows a part of the results.

`Cc1ccc(S(=O)(=O)N[C@H]2CC[C@H](CC(=O)NCc3ccncn3)O[C@H]2CO)cc1`: the viability index under setting [1] stood at 0.994 ± 0.04.

Under setting [1], `COc1ccccc1C#Cc1ccc2c(c1)[C@@H]1[C@@H](CCN1C(=O)c1ccncc1)[C@@H](CO)N2` came in with a viability index of 1.02 ± 0.093.

Under setting [1], `O=C(NCC[C@@H]1CC[C@H](NC(=O)C2CCOCC2)[C@H](CO)O1)c1cc(Cl)cc(Cl)c1` came in with a viability index of 1.01 ± 0.1.

`COc1ccc(CN2C[C@]3(CN(C3)C(C)=O)c3c([C@@H]2CO)n(C)c2cc(OC)ccc32)cc1`: under setting [1], the viability index turned out to be 0.965 ± 0.028.

`COCC#Cc1ccc([C@@H]2[C@@H](C#N)N(C(=O)Cc3ccccc3)[C@@H]2CO)cc1` registered a viability index under setting [1] of 1.03 ± 0.021.

With `C[C@@H]1CN([C@@H](C)CO)S(=O)(=O)c2ccc(-c3ccncc3)cc2O[C@@H]1CN(C)S(C)(=O)=O`, the viability index under setting [1] turned out to be 1.01 ± 0.067.

`O=C(CN1CCOCC1)N1CCCCN2[C@H](CO)[C@H](c3ccc(Br)cc3)[C@@H]2C1` showed a viability index under setting [1] of 0.945 ± 0.057.

Compound `C[C@H](CO)N1C[C@H](C)[C@H](CN(C)S(=O)(=O)c2ccc(C(F)(F)F)cc2)OCc2ccccc2-c2c(n(C)c3ccccc23)C1=O` showed a viability index (library set: Broad Institute Blood Stage) of 0.693 ± 0.051.

On to `CO[C@H]1CN(C)C(=O)c2cc(NC(=O)Nc3c(C)noc3C)ccc2OC[C@H](C)NC[C@H]1C`, for which the viability index under setting [1] was found to be 0.997 ± 0.014.

In the case of `CC(C)NC(=O)Nc1ccc2c(c1)C(=O)N([C@H](C)CO)C[C@H](C)[C@@H](CN(C)C(=O)C1CCCCC1)OCCCC[C@H](C)O2`, the viability index under setting [1] was 1.19 ± 0.011.

`C[C@H](CO)N1C[C@H](C)[C@H](CN(C)C(=O)[C@H](Cc2ccccc2)N(C)C)OCc2ccccc2-c2c(n(C)c3ccccc23)C1=O` showed a viability index under setting [1] of 1 ± 0.017.

Consider `N#C[C@H]1[C@H](c2ccc(C3=CCCCC3)cc2)[C@@H](CO)N1C(=O)CN1CCOCC1`, for which the viability index under setting [1] was 1.11 ± 0.05.

As for `COc1cccc(CN2C[C@]3(CCN(CC3)S(C)(=O)=O)c3c([C@H]2CO)n(C)c2cc(OC)ccc32)c1`, the viability index under setting [1] came out at 1.03 ± 0.018.

On to `COc1ccc(S(=O)(=O)Nc2ccc3c(c2)C(=O)N([C@H](C)CO)C[C@H](C)[C@@H](CN(C)Cc2ccc(C(F)(F)F)cc2)OCCCC[C@H](C)O3)cc1`, for which the viability index under setting [1] amounted to 1.07 ± 0.051.

In the case of `CO[C@@H]1CN(C)C(=O)c2cc(NC(=O)C3CCOCC3)ccc2OC[C@@H](C)NC[C@@H]1C`, the viability index under setting [1] turned out to be 1.01 ± 0.015.

In turn, `COCC(=O)Nc1ccc2c(c1)[C@@H]1C[C@@H](CC(=O)N[C@@H](C)c3ccccc3)O[C@H](CO)[C@@H]1O2` registered a viability index under setting [1] of 1.12 ± 0.022.

Under setting [1], `C[C@@H]1CN([C@@H](C)CO)C(=O)Cc2cc(NC(=O)c3ccncc3)ccc2O[C@@H]1CN(C)C(=O)Nc1ccc(F)cc1` gave a viability index of 0.953 ± 0.15.

Compound `CCCC#Cc1ccc([C@H]2[C@@H](C#N)N(C(=O)CN3CCOCC3)[C@H]2CO)cc1` returned a viability index under setting [1] of 1.074 ± 0.01.

`COc1cccc(S(=O)(=O)N2C[C@H](O)COC[C@H]3O[C@H](CC(=O)N4CCN(c5ccccc5)CC4)CC[C@@H]32)c1`: the viability index under setting [1] came to 0.942 ± 0.086.

Under setting [1], `C/C=C/c1ccccc1[C@@H]1[C@H](C#N)N(C(=O)Cc2ccccn2)[C@H]1CO` gave a viability index of 1.11 ± 0.025.

In turn, `CC(C)(O)C#Cc1cccc(-c2nc(C(=O)N[C@@H]3CCN(Cc4ccccc4)C3)cc3c2[C@H](CCO)N(S(=O)C(C)(C)C)C3)c1` (stereo partly specified) had a viability index under setting [1] of 0.921 ± 0.019.

With `O=C(CC(F)(F)F)N1C[C@@H]2[C@H](c3ccccc31)[C@H](CO)N2C(=O)c1ccncc1`, the viability index under setting [1] worked out at 1.04 ± 0.039.

Turning to `COCC(=O)N1C[C@]2(CN(Cc3ccccc3)C2)c2c([C@@H]1CO)n(C)c1cc(OC)ccc21`, under setting [1], the viability index was 1.08 ± 0.085.

Consider `O=C(CN1CCOCC1)N1CC(=O)N2[C@H](C1)[C@H](c1ccc(C3=CCCCC3)cc1)[C@@H]2CO`, for which, under setting [1], the viability index worked out at 1.02 ± 0.035.

Consider `COc1ccccc1CN1[C@H](CO)[C@@H]2c3ccccc3N(C(=O)c3cccnc3)C[C@@H]21`, for which the viability index under setting [1] came to 1.08 ± 0.02.

Turning to `COc1ccccc1S(=O)(=O)N(C)C[C@H]1OCc2cn(nn2)CCCC(=O)N([C@H](C)CO)C[C@H]1C`, under setting [1], the viability index was determined as 1.04 ± 0.018.

Take `COc1ccc2c3c([nH]c2c1)[C@@H](CO)N(CC1CCCC1)C[C@]31CN(C)C1`: under setting [1], the viability index was determined as 0.986 ± 0.041.

Under setting [1], `O=C(C[C@@H]1CC[C@@H]2NC[C@@H](O)COC[C@H]2O1)NC1Cc2ccccc2C1` displayed a viability index of 1.05 ± 0.02.

As to `Cc1ccc(-c2ccccc2[C@H]2[C@@H](C#N)N(C(=O)c3cccc(F)c3)[C@H]2CO)cc1`, the viability index under setting [1] is 1.13 ± 0.053.

Turning to `CNC[C@@H]1Oc2ccc(NC(=O)CCC(F)(F)F)cc2C(=O)N([C@H](C)CO)C[C@H]1C`, under setting [1], the viability index was found to be 0.984 ± 0.14.

Regarding `O=C(C[C@H]1CC[C@H](NC(=O)C2CC2)[C@@H](CO)O1)Nc1ccccc1`, under setting [1], the viability index turned out to be 0.981 ± 0.031.

In the case of `O=C(NCC[C@H]1CC[C@@H](NS(=O)(=O)Cc2ccccc2)[C@H](CO)O1)C1CCCCC1`, the viability index under setting [1] amounted to 1.02 ± 0.02.

Under setting [1], `O=C(C[C@@H]1CC[C@H](NS(=O)(=O)c2ccccc2F)[C@H](CO)O1)NCCCN1CCOCC1` yielded a viability index of 0.941 ± 0.04.

For `Cc1ccc(S(=O)(=O)N[C@@H]2CC[C@H](CC(=O)NCc3ccncn3)O[C@@H]2CO)cc1`, the viability index under setting [1] was 1.04 ± 0.07.

In the case of `Cc1ccccc1S(=O)(=O)N1[C@H](C#N)[C@@H](c2ccc(C#CC3CC3)cc2)[C@@H]1CO`, under setting [1], the viability index was 1.06 ± 0.028.

`C[C@@H](NC(=O)C[C@H]1CC[C@H]2[C@@H](COc3ccc(NS(=O)(=O)c4ccc(Cl)cc4)cc3C(=O)N2C)O1)c1ccccc1` displayed a viability index under setting [1] of 0.953 ± 0.16.

On to `CCCC#Cc1ccc([C@@H]2[C@H](CO)N3C(=O)CN(C(=O)c4cccnc4)C[C@@H]23)cc1`, for which, under setting [1], the viability index turned out to be 1.12 ± 0.035.

Regarding `CN1C(=O)c2cc(NC(=O)c3cscn3)ccc2OC[C@H]2O[C@@H](CC(=O)N3CCOCC3)CC[C@@H]21`, the viability index under setting [1] turned out to be 1.11 ± 0.11.

Under setting [1], `O=C(C[C@@H]1CC[C@@H]2[C@H](COC[C@H](O)CN2S(=O)(=O)c2ccccc2F)O1)N1CCC(Cc2ccccc2)CC1` yielded a viability index of 1.0556 ± 0.00047.

The compound `CO[C@H]1CC[C@H]2CCOc3c(C#N)cccc3C(=O)N(C)C[C@H](OC)[C@H](C)C(=O)N(C)C[C@@H]1O2` came in with a viability index under setting [1] of 1.01 ± 0.047.

Under setting [1], `CCC(=O)N1C[C@]2(CCN(CC2)C(=O)Cc2ccccc2)c2c([C@H]1CO)n(C)c1cc(OC)ccc21` displayed a viability index of 0.996 ± 0.055.

Compound `CO[C@H]1CN(C)C(=O)c2cc(NC(C)=O)ccc2OC[C@H](C)N(S(C)(=O)=O)C[C@H]1C` came in with a viability index under setting [1] of 1.07 ± 0.09.

In the case of `C[C@H](CO)N1C[C@H](C)[C@H](CN(C)Cc2ccc(C(=O)O)cc2)Oc2ccc(NC(=O)CCN3CCOCC3)cc2CC1=O`, the viability index under setting [1] is 1.03 ± 0.024.

In the case of `O=C(NC1CCCC1)N1CCCCN2[C@H](CO)[C@H](c3ccc(-c4cccnc4)cc3)[C@H]2C1`, the viability index under setting [1] is 1.01 ± 0.052.

Under setting [1], `Cc1ccc(-c2ccc([C@@H]3[C@H]4CNC[C@@H]3N4C(=O)NC(C)C)cc2)cc1` had a viability index of 1.12 ± 0.027.

Under setting [1], `COc1ccc2c3c([C@H](CO)N(C[C@]33CN(Cc4ccccc4F)C3)C(=O)Nc3ccc(F)cc3)n(C)c2c1` gave a viability index of 1 ± 0.091.
